From paper PMC7819943, “Rice protein-binding microarrays: a tool to detect cis-acting elements near promoter regions in rice” come the findings set out here.

The list shows a part of the results.

For this experiment, the target named is T1, OsWOX13 (Oryza sativa, UniProt Q5QMM3 1-267).
T1 sequence: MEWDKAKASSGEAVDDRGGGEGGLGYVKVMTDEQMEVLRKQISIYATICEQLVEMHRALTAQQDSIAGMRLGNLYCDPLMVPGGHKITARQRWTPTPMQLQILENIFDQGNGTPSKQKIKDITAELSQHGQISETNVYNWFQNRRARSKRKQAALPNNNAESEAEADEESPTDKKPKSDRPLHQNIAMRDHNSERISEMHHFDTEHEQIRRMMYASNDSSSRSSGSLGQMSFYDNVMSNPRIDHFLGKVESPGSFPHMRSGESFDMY
The experiment in a line: protein-binding microarray (RPBM); PBS, 2% BSA, 51.3 ng/ul salmon testes DNA, 50 uM zinc acetate, 200 nM TF, 25 C, 1 h; high values mean tight binding. The following applies: protein: recombinant; tags: N-terminal polyhistidine and DsRed monomer fusion (pET32a); label: CyDye5-dUTP incorporated in the synthesized complementary strand; 3' TTTTT single-stranded linker to array surface; dsDNA, one strand shown. The method, boiled down:
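Binding signal here means per-feature fluorescence intensity in arbitrary units. The values were read on an Axon 4000B scanner after a custom Agilent array, double-stranded by primer extension with Cy5-dUTP, was incubated with 200 nM protein at 25 °C for 1 h in PBS with 2% BSA, salmon testes DNA and 50 µM zinc acetate, then washed. The proteins were transcription factors with an N-terminal polyhistidine tag and DsRed, expressed in E. coli BL21-CodonPlus and purified on Ni–NTA.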
“CTAATTAATCCATCATTAGCAAATGTTTACTGTAGTATCACGGAGTCACCTAGTGCAG”: the binding signal is 19500 fluorescence intensity (a.u.).

On to “ATATTTTGAATTAGATTAAGTAATTTCATATAGTGGTAGACGGAGTCACCTAGTGCAG”, for which the binding signal is 4480 fluorescence intensity (a.u.).

As to “CCAGTCAAGGGAACAGATTGACCAATCGTTCACACCAGTGCGGAGTCACCTAGTGCAG”, the binding signal is 18400 fluorescence intensity (a.u.).

“GACGATGTTAATTAATTAACTCTGGAGCATAATTTTGTGGCGGAGTCACCTAGTGCAG”: the binding signal is 27000 fluorescence intensity (a.u.).

For the sequence “AATGCAATTCCTCTGTGATTAGACAGCTGTTGCCTTTAGACGGAGTCACCTAGTGCAG”, the binding signal was 8420 fluorescence intensity (a.u.).

As to “TGCATGATTTGTTTCAGCGAGTTTCCTGGTAACTTTTCCACGGAGTCACCTAGTGCAG”, the binding signal was 18500 fluorescence intensity (a.u.).

Regarding “CTGCAGATTGACCTATCCTGGGCTTGGATCATATGCGTGCCGGAGTCACCTAGTGCAG”, the binding signal is 24700 fluorescence intensity (a.u.).

For the sequence “CTGCTTTATTGGACTGAGATAATTTTCTACTAAAATGTTGCGGAGTCACCTAGTGCAG”, the binding signal is 6250 fluorescence intensity (a.u.).

Regarding “AGGGGTGATGGAAATAAAAGGATTAAACAAGAGGTCCCGGCGGAGTCACCTAGTGCAG”, the binding signal is 6710 fluorescence intensity (a.u.).

On to “AGGCACGGATTGATGCATTAATTTGGTTGCAATGTAGATGCGGAGTCACCTAGTGCAG”, for which the binding signal is 37500 fluorescence intensity (a.u.).

Take “CGTTTTGGCGTGATTAATTTGCATGGTAGCGCCCGCGCTTCGGAGTCACCTAGTGCAG”: the binding signal was 16100 fluorescence intensity (a.u.).

Consider “AATAATTGTTAGTGAATGATGATCTGCCATCTTTGTATATCGGAGTCACCTAGTGCAG”, for which the binding signal is 38000 fluorescence intensity (a.u.).

On to “CCAAAATTTTGACAGGATTTCTTATGTATTTACCAAATTTCGGAGTCACCTAGTGCAG”, for which the binding signal was 19600 fluorescence intensity (a.u.).

Consider “ACATTTCATCCTGATTGTTACCTAAAGTGCCCGTAGCAACCGGAGTCACCTAGTGCAG”, for which the binding signal is 5160 fluorescence intensity (a.u.).

For the sequence “CTTTAAATTTACTGTAGATCTGAGGTATGAAGTCATGAGGCGGAGTCACCTAGTGCAG”, the binding signal was 7730 fluorescence intensity (a.u.).

On to “TCAATCAATCACAACATTTATCAAACATTTCCATCTACTTCGGAGTCACCTAGTGCAG”, for which the binding signal is 28400 fluorescence intensity (a.u.).

As to “ATTTGATTGTATATTGTACTAGTGCTACTACTACGTGGAGCGGAGTCACCTAGTGCAG”, the binding signal is 60400 fluorescence intensity (a.u.).

On to “AGCAGTAATTAAGGAGTACCGTACAAGTTCAGGGCCGGTTCGGAGTCACCTAGTGCAG”, for which the binding signal was 6700 fluorescence intensity (a.u.).

Consider “ATTTCTGACATGATTTTCCCTAATCTATTTACAGGAGGAACGGAGTCACCTAGTGCAG”, for which the binding signal was 13900 fluorescence intensity (a.u.).

For the sequence “GTGTTTCTTTTCCTTGATTTGTACCATTATTTCCAGAATTCGGAGTCACCTAGTGCAG”, the binding signal was 6590 fluorescence intensity (a.u.).

In the case of “ATTTAAATGAGTGAAACATTTTCGCTCTACTTAGTGAAACCGGAGTCACCTAGTGCAG”, the binding signal was 5460 fluorescence intensity (a.u.).

Consider “TGCTTAATTTGAATGACAAAGTGTGGCTTAAACAAACGAGCGGAGTCACCTAGTGCAG”, for which the binding signal was 32300 fluorescence intensity (a.u.).

Turning to “AAAACTCATAATGATTGGACTAACTGAATGTCGATTTCCTCGGAGTCACCTAGTGCAG”, the binding signal is 33100 fluorescence intensity (a.u.).

As to “TACGGCTAATTATGGACTAATTAGACTCAAAAGATTCATGCGGAGTCACCTAGTGCAG”, the binding signal is 53800 fluorescence intensity (a.u.).

As for “AGCAAAATTAACACCGCAATTTGAGCCGGTTACTTCTTTCCGGAGTCACCTAGTGCAG”, the binding signal is 4830 fluorescence intensity (a.u.).

Take “GGGAGAGGGGAGAAGAAGATTGATTGCTGCTGCAAACTAACGGAGTCACCTAGTGCAG”: the binding signal is 3250 fluorescence intensity (a.u.).

Turning to “AGGAAGTATGATATTTTCAATTAACTCAAGCAATTGCAACCGGAGTCACCTAGTGCAG”, the binding signal is 3790 fluorescence intensity (a.u.).

Take “TTGGATTGGAGAGACGGGACGGGAGAAGAAGAAGAAGAAGCGGAGTCACCTAGTGCAG”: the binding signal is 3350 fluorescence intensity (a.u.).

For “ATGCCCTGTTACCTGTGTGTGATTTCTTTGTGCTCCATAACGGAGTCACCTAGTGCAG”, the binding signal is 5160 fluorescence intensity (a.u.).

Consider “CAAAATTTTAATTTTATGGTGGACTAAACACACCCTTTGTCGGAGTCACCTAGTGCAG”, for which the binding signal was 25500 fluorescence intensity (a.u.).

Consider “ACTAATGATGGAATTCGTTGCCCATTTTGTGATGTTGAAACGGAGTCACCTAGTGCAG”, for which the binding signal is 9680 fluorescence intensity (a.u.).

With “TTCAGTCTAATTTGTTACATCATCAGGAACTGATTTCGTCCGGAGTCACCTAGTGCAG”, the binding signal is 20900 fluorescence intensity (a.u.).

In the case of “AGCCTAGTGATTAGTGAATGCCAATAGTAAATTTATTATTCGGAGTCACCTAGTGCAG”, the binding signal is 7320 fluorescence intensity (a.u.).

“TAATAAATCAAAACTAATAAATCAAAACAGCTTATCAAGACGGAGTCACCTAGTGCAG”: the binding signal was 3350 fluorescence intensity (a.u.).

As for “TCCACTAATTGCGATTATTGCCATCTATTTTCAAGATTACCGGAGTCACCTAGTGCAG”, the binding signal was 24700 fluorescence intensity (a.u.).

Turning to “AGAATGGAAATTGAATGAAATCTACTCGGAGCAATTGAGACGGAGTCACCTAGTGCAG”, the binding signal is 7260 fluorescence intensity (a.u.).

With “GCAAGTATGATTACATAATGATCAGCGTGTTTATGATAAACGGAGTCACCTAGTGCAG”, the binding signal is 10200 fluorescence intensity (a.u.).

With “TTGTTAGATAACCAATTAATCAATTTTAATGCAATAACAACGGAGTCACCTAGTGCAG”, the binding signal is 12200 fluorescence intensity (a.u.).

As to “AACATAATTACTATTTTCTGGTTTCATAAACTTCGATACACGGAGTCACCTAGTGCAG”, the binding signal is 22100 fluorescence intensity (a.u.).

Take “GAACATCCACGTGATTGCAAATCATCAAAGCAAATAAGAGCGGAGTCACCTAGTGCAG”: the binding signal was 28200 fluorescence intensity (a.u.).

Take “GCCCACTTGTCAATCTCTCTTTCTCTGTTCTTCTTCGACACGGAGTCACCTAGTGCAG”: the binding signal is 4840 fluorescence intensity (a.u.).

With “TTTAATTATTCTTCTTCCTCCTAATGCGCTCACTGGTCACCGGAGTCACCTAGTGCAG”, the binding signal is 16900 fluorescence intensity (a.u.).
